In all, about 200,000 compounds went through this assay and about 4,500 (2.2%) were called active. The inconclusive results got no clear call from the source; some entries with a clear call stand among them for comparison. The call rests on the fitted dose curve; in most records, active means well fitted inhibition curve with a large enough effect; inconclusive means small, poorly fitted or top-dose-only effect, or effect the other way; inactive means flat fitted curve, though single readings scatter. Potencies of inconclusive entries are doubtful fits and often do not repeat.
Target: Cruzipain (Trypanosoma cruzi) (UniProt P25779)
UniProt P25779, sequence (P25779 whole entry, looked up): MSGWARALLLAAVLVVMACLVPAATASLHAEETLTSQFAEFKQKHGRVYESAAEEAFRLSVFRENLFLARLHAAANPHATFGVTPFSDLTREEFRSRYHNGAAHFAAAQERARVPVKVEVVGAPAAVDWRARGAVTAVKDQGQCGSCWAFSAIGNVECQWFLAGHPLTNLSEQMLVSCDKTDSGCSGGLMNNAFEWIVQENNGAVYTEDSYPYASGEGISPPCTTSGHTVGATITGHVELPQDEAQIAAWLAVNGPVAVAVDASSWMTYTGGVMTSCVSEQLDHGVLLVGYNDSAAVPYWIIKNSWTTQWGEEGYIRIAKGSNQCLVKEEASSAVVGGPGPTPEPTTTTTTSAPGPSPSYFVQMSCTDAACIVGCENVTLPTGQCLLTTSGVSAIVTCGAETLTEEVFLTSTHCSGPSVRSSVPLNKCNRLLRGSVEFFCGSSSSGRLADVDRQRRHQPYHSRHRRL
Assay: qHTS Assay for Promiscuous and Specific Inhibitors of Cruzain (without detergent); further: nearly all actives have a fitted effect of over 40% in size
Settings: purified cruzain, Z-FR-AMC fluorescence, no detergent
Method: Cruzain is a cysteine protease from the tropical parasite Trypanosoma cruzi. Dual qHTS experiment was performed against the NCGC compound collection in order to 1) identify novel inhibitors of the enzyme and 2) profile the compound collection for promiscuous inhibitors operating via colloidal aggregation (by performing detergent-free and detergent-containing comparison screens). Cruzain was assayed by the use of fluorogenic coumarin-based substrate Z-FR-AMC: proteolytic cleavage releases AMC, whose fluorescence is measured at 360 nm excitation and 450 nm emission. Purified cruzain was supplied by the labs of Prof. James McKerrow and Brian Shoichet, UC San Francisco.
This assay had 0.00005% Triton X-100 concentration. See also releated assay "qHTS Assay for Promiscuous and Specific Inhibitors of Cruzain (with detergent)" with 0.01% Triton X-100.
See following references for additional details:
Assay Provider: Shoichet, Brian; University of California, San Fancisco
Screening Center PI: Austin, C.P.
Screening Center: NIH Chemical Genomics Center [NCGC]
Buffer: 100 mM Sodium Acetate, pH 5.5, 5 mM DTT, Triton X-100 concentration: 0.01%.
Buffer in columns 3 and 4 as negative control (no enzyme).
Substrate solution: 2 uM final concentration of Z-FR-AMC (catalog number I-1160, Bachem) dispensed throughout the plate.
Enzyme: 1.5 nM Cruzain final concentration in columns 1, 2, 5-48. Column 1 is neutral (100% activity). Column 2 contained titration of covalent inhibitor K11777, starting concentration 1 mM, then 1:2 dilution in duplicate).
Three uL of enzyme or buffer were dispensed to 1536-well Greiner black solid bottom plates. Compounds and controls (23 nL) were transferred via Kalypsys PinTool. The plates were incubated for 15 min at room temperature, and then 1 uL of substrate solution was added to start the reaction. The plates were immediately transferred to and read 4 times every 30 seconds for 2 min on ViewLux High-throughput CCD imager (Perkin-Elmer) using 360 nm excitation and 450 nm emission fluorescence protocol. The fluorescence intensity difference between the third and the first time points (time lapse of 60 seconds) was used to compute reaction progress.
Potency means the concentration at half of the fitted maximal effect; tags describe the fitted curve by direction and shape.

Row | SMILES | max response, negative = inhibition | Potency
1 | Cc1cccc(CCn2c(=O)c3ccccc3n(Cc3ccccc3C)c2=O)c1 | inactive: 1.95% | 
2 | Nc1c(C(=O)NCCc2ccc(Cl)cc2)sc2ccc(S(=O)(=O)N3CCCCC3)cc12 |  | inconclusive: 39.8 µM [inhibitor, single point]
3 | O=C(CCSc1ccccc1)Nc1ccc(OCc2ccccc2)cc1 |  | inconclusive: 39.8 µM [inhibitor, single point]
4 | CCOc1ccc(C(=O)Nc2cc(-c3nc4ccccc4[nH]3)ccc2C)cc1[N+](=O)[O-] |  | inconclusive: 20 µM [inhibitor, partial curve]
5 | CC(C)(C)c1ccc(C(=O)NC2=NC(c3cccc(F)c3)CC(=O)N2)cc1 (configuration not stated) | inactive: 3.79% | 
6 | Cc1cc(C)nc(/N=C2\NC(=O)CC(C(=O)O)N2c2ccc(Oc3ccccc3)cc2)n1 (configuration not stated) |  | inconclusive: 31.6 µM [activator, single point]
7 | CCOc1cccc(-c2nc3ccccc3c(=O)o2)c1 | inactive: 0.279% | 
8 | COc1ccccc1NC(=O)C(=O)c1cc(C)n(-c2cc(C)cc(C)c2)c1C | inactive: 1.95% | 
9 | CCCCCCCC1=CC2=CC(=O)C(C)(OC(C)=O)C(=O)C2=CN1CCc1ccccc1 (configuration not stated) |  | inconclusive: 39.8 µM [activator, single point]
10 | COc1cc(/C=C/C(=O)/C=C(O)/C=C/c2ccc(O)c(OC)c2)ccc1O |  | inconclusive: 25.1 µM [inhibitor, single point]
11 | Nc1nc2c(ncn2C2OC(COC(=O)c3ccccc3)C(OC(=O)c3ccccc3)C2OC(=O)c2ccccc2)c(=O)[nH]1 (configuration not stated) |  | active: 7.94 µM
12 | c1cncc(-c2nnc(SCc3nc4ccccc4[nH]3)o2)c1 |  | inconclusive: 20 µM [inhibitor, partial curve]
13 | Cc1c(C(=O)N2CCC(C)CC2)oc2ccc(S(=O)(=O)N3CCC4(CC3)OCCO4)cc12 |  | inconclusive: 39.8 µM [activator, single point]
14 | Cc1ccc2c(c1)c1c3n2CCN(C(=O)CN2CCN(C)CC2)C3CCC1 (configuration not stated) | inactive: -9.56% | 
15 | CN(C)c1ccc(NC(=O)Cn2c(=O)n(Cc3ccccc3)c(=O)c3ccccc32)cc1 |  | inconclusive: 31.6 µM [inhibitor, single point]
16 | Cn1c(SCC(=O)Nc2ccccc2F)nnc1-c1cc2ccccc2o1 |  | inconclusive: 31.6 µM [inhibitor, single point]
17 | Cc1ccc(CNC(=O)COC(=O)c2ccc(Br)cc2)cc1 |  | inconclusive: 31.6 µM [inhibitor, single point]
18 | CCOC(=O)CC(NC(=O)c1cc2c(=O)n3cccc(C)c3nc2s1)c1ccc(OCC(C)C)c(OC)c1 (configuration not stated) | inactive: -7.48% | 
19 | COc1cc(NC(=O)c2cc(C3CC3)nc3c2c(C)nn3-c2ccc(C)cc2)cc(OC)c1 |  | inconclusive: 3.16 µM [inhibitor, full curve, poor fit]
20 | Cn1nc(-c2ccc(Cl)cc2)c2cc(C(=O)N3CCN(C(=O)c4ccco4)CC3)sc21 |  | inconclusive: 31.6 µM [activator, single point]
21 | CCOC(=O)Cn1c(=O)n(C2CCCCC2)c2nc(-c3ccccc3Cl)nc(C(N)=O)c21 | inactive: -11.2% | 

Row | SMILES | max response, negative = inhibition | Potency
22 | O=C(CSc1nc2c([nH]c3ccccc32)c(=O)n1-c1ccc(F)cc1)N1CCCc2ccccc21 | inactive: 3.82% | 
23 | C[C@H](CCC(=O)O)[C@H]1CC[C@@H]2[C@@H]3[C@@H](O)C[C@H]4C[C@@H](O)CC[C@@]4(C)[C@H]3CC[C@@]21C |  | inconclusive: 7.94 µM [activator, full curve]
24 | O=[N+]([O-])c1ccc2c(c1)C(N1CCOCC1)/C(=C/COc1ccc3ccccc3c1Br)O2 (configuration not stated) |  | active: 25.1 µM
25 | COc1ccc(CNC(=O)COC(=O)CCCOc2ccc(Cl)cc2Cl)cc1OC |  | inconclusive: 31.6 µM [activator, single point]
26 | COc1ccc(C(C)=O)c(Oc2nc(CN3CCOCC3)nc3scc(-c4cccs4)c23)c1 |  | inconclusive: 39.8 µM [activator, single point]
27 | COc1ccc(/C=c2\s/c(=C(/C#N)C(=O)NCc3ccco3)n(-c3ccccc3)c2=O)cc1 |  | inconclusive: 25.1 µM [inhibitor, single point]
28 | Cc1cccc(CNC(=O)c2ccc3nc(-c4ccccc4)c(-c4ccccc4)nc3c2)c1 | inactive: 5.63% | 
29 | O=[N+]([O-])c1ccc(/C=N/Nc2nc(-c3ccccc3)c3cc(Br)ccc3n2)o1 |  | inconclusive: 39.8 µM [inhibitor, single point]
30 | O=C(Nc1ccccc1)N1CC=C(c2ccc(F)cc2)CC1 |  | inconclusive: 39.8 µM [inhibitor, single point]
31 | Nn1cnc2sc3c(c2c1=O)CCC3 | inactive: 0.567% | 
32 | CCc1ccc(S(=O)(=O)c2c(C(=O)c3ccc(C)c(C)c3)cnc3ccccc23)cc1 |  | active: 12.6 µM
33 | COc1cccc(N2CCN(c3ccc4nnc(CCC(=O)O)n4n3)CC2)c1 | inactive: 3.99% | 
34 | Cc1ccccc1N1CCN(CCCN2C(=O)CC(=C(c3ccccc3)c3ccccc3)C2=O)CC1 |  | inconclusive: 39.8 µM [inhibitor, single point]
35 | COCCNC(=O)CSc1nc2ccccc2nc1Cc1ccc(C)cc1 |  | inconclusive: 31.6 µM [activator, single point]
36 | CC(=O)O[C@H]1[C@H]2[C@@H](OC(=O)Cc3ccccc3)[C@@H](C)C[C@]2(OC(C)=O)C(=O)/C(C)=C/[C@@H]2[C@H](CC[C@@]13CO3)C2(C)C |  | inconclusive: 22.4 µM [activator, partial curve]
37 | CCn1c(=O)cc(OCC(=O)Nc2cc(OC)c(OC)c(OC)c2)c2ccccc21 |  | inconclusive: 39.8 µM [activator, single point]
38 | COc1ccc(-c2nc3ccccc3c(=O)n2CCOc2c(C)cccc2C)cc1 |  | inconclusive: 31.6 µM [inhibitor, single point]
39 | CCCCCCn1cc(C(=O)O)c(=O)c2ccccc21 |  | inconclusive: 31.6 µM [inhibitor, single point]
40 | CCn1c(COc2c(C)cccc2C)nnc1SCC(=O)N1CCN(c2ccccc2)CC1 |  | inconclusive: 31.6 µM [activator, single point]
41 | Cc1cc(SCC(=O)c2cc3ccccc3o2)nc2ccccc12 |  | inconclusive: 31.6 µM [inhibitor, single point]
42 | O=C(CSc1nnc(-c2ccccc2)o1)n1c2c(c3ccccc31)CCCC2 |  | active: 25.1 µM

Row | SMILES | max response, negative = inhibition | Potency
43 | CCOc1ccc(S(=O)(=O)N2CCc3cc(OC)c(OC)cc3C2)cc1 |  | inconclusive: 39.8 µM [activator, single point]
44 | CCN(CCO)c1ncnc2c1sc1nc(CC(C)C)c3c(c12)CC(C)(C)OC3 |  | inconclusive: 25.1 µM [activator, partial curve]
45 | O=C(Nc1ccc(-c2nc3ccccc3o2)cc1)c1ccc(N2CCOCC2)c([N+](=O)[O-])c1 |  | inconclusive: 6.31 µM [activator, full curve, poor fit]
46 | CC(=O)Oc1ccc(-c2cccc(C(=O)OCC(=O)Nc3ccccc3Oc3ccccc3)c2)cc1 |  | inconclusive: 3.98 µM [inhibitor, partial curve, poor fit]
47 | Cc1ccc2nc(N3C(=O)C(O)=C(C(=O)c4cc5ccccc5o4)C3c3cccs3)sc2c1 (configuration not stated) | inactive: 9.23% | 
48 | Cc1ccc(N2CCN(S(=O)(=O)N3CCCCCC3)CC2)cc1Cl | inactive: -11.3% | 
49 | N=c1c(C(=O)NCc2ccc3c(c2)OCO3)cc2c(=O)n3ccccc3nc2n1Cc1cccnc1 |  | inconclusive: 31.6 µM [inhibitor, single point]
50 | CC(C)n1c(O)c(/C=C2\C=Nc3ccccc32)sc1=Nc1ccccc1 |  | inconclusive: 39.8 µM [inhibitor, single point]
51 | Cn1c(CC(=O)Nc2ccc(Cl)c(Cl)c2)nnc1SCC(=O)Nc1nccs1 |  | inconclusive: 31.6 µM [inhibitor, single point]
52 | COc1cccc(OCCN2CCN(c3ncnc4c3cnn4-c3ccccc3)CC2)c1 |  | inconclusive: 31.6 µM [activator, single point]
53 | CCn1c2ccccc2c2nnc(NCCCO)nc21 | inactive: 9.25% | 
54 | COC(=O)[C@@H]1CC[C@H](C)[C@@H](c2ccc(C)cc2)N1C(=O)c1ccc(/C=N/OC[C@@H](O)COCc2ccco2)cc1 |  | inconclusive: 15.8 µM [activator, partial curve]
55 | CC1(C)Cc2c(sc3nc(N/N=C/c4ccccc4)[nH]c(=O)c23)CO1 |  | inconclusive: 31.6 µM [inhibitor, single point]
56 | c1ccc(Cc2nn3c(-c4ccncc4)nnc3s2)cc1 |  | inconclusive: 25.1 µM [inhibitor, single point]
57 | Cc1cc(NC(=O)COC(=O)c2oc3c(Cl)cccc3c2C)no1 |  | active: 12.6 µM
58 | C[C@@]12CC(=O)C3=C(CCCC3=O)N1CCc1ccccc12 | inactive: 9.74% | 
59 | COc1ccc(CCN(Cc2cccs2)S(=O)(=O)c2ccc(-n3cnnn3)cc2)cc1OC |  | inconclusive: 39.8 µM [activator, single point]
60 | CC(C)N(Cc1nc(-c2ccc(Cl)cc2)no1)C(=O)CCCN1C(=O)c2ccccc2C1=O |  | inconclusive: 39.8 µM [activator, single point]
61 | Cc1ccc(Cl)cc1N(C)C(=O)c1cnc(N2CCOCC2)c2ccccc12 |  | inconclusive: 39.8 µM [activator, single point]
62 | Cc1nnc(SCC(=O)NCCOc2ccc(Cl)cc2)n1-c1ccccc1 |  | inconclusive: 39.8 µM [activator, single point]

Source: PubChem BioAssay AID1476 (National Center for Advancing Translational Sciences (NCATS), 2009)
